Test results taken from patent US20220339143A1, “TAK-925 FOR USE IN TREATING NARCOLEPSY” (Takeda Pharmaceutical Company Limited, priority 2019, published 2022).
The source gives many values for each of these; only a part stands here.

Experiment: Single dose PK in healthy subjects (Cohorts 1, 2, S1 and S2), plasma
Assay type: in vivo, human
Method: This study investigates (i) the safety and tolerability of Compound A (methyl (2R,3S)-3-((methylsulfonyl)amino)-2-(((cis-4-phenylcyclohexyl)oxy)methyl)piperidine-1-carboxylate) when a single dose given as a 9 hour continuous IV infusion is administered to healthy adults, healthy elderly subjects and patients with narcolepsy type 1 (NT1); (ii) the pharmacokinetics of Compound A when a single dose given as a 9 hour continuous IV infusion is administered to healthy adults, healthy elderly subjects and patients with narcolepsy type 1; and (iii) the pharmacodynamics (PD) effects of Compound A, primarily by evaluation of the sleep latency on MWT when a single dose given as a 9 hour continuous IV infusion is administered to patients with narcolepsy type 1.
Pharmacokinetics: Concentrations of Compound A in plasma, and CSF, and pharmacokinetics parameters.
On average, the time to reach the plateau appeared to be approximately 3 to 4 hours after the start of infusion. […] After switching off the IV infusion, Compound A plasma concentrations declined rapidly and in a biphasic manner with a mean terminal disposition phase t1/2z ranging approximately from 3.4 to 5.1 hours across all doses. […] Table 5 provides a summary of plasma concentrations of Compound A after a single IV infusion in healthy subjects. Table 6 provides a summary of pharmacokinetic parameters of Compound A after a single IV infusion in healthy subjects.

[1] = 180 mg single IV infusion, 1 hr After End of Infusion
[2] = 180 mg single IV infusion, 1.5 hr After End of Infusions
[3] = 180 mg single IV infusion, 2 hr After End of Infusions
[4] = 180 mg single IV infusion, 3 hr After End of Infusions
[5] = 180 mg single IV infusion, 4 hr After End of Infusions
[6] = 180 mg single IV infusion, 6 hr After End of Infusions
[7] = 180 mg single IV infusion, 10 hr After End of Infusions
[8] = 180 mg single IV infusion, 15 hr After End of Infusions
[9] = 180 mg, 0.17 hr After End of Infusion
[10] = 240 mg single IV infusion, 0.17 hr After End of Infusion
[11] = 240 mg single IV infusion, 0.33 hr After End of Infusion
[12] = 240 mg single IV infusion, 0.5 hr After End of Infusion
[13] = 240 mg single IV infusion, 0.75 hr After End of Infusion
[14] = 240 mg single IV infusion, 1 hr After End of Infusion
[15] = 240 mg single IV infusion, 1.5 hr After End of Infusions
[16] = 240 mg single IV infusion, 2 hr After End of Infusions
[17] = 240 mg single IV infusion, 3 hr After End of Infusions
[18] = 240 mg single IV infusion, 4 hr After End of Infusions
[19] = 240 mg single IV infusion, 6 hr After End of Infusions
[20] = 240 mg single IV infusion, 10 hr After End of Infusions
[21] = 240 mg single IV infusion, 15 hr After End of Infusions
[22] = 240 mg single IV infusion, Predose
[23] = 240 mg, 0.17 hr After End of Infusion

COC(=O)N1CCC[C@H](NS(C)(=O)=O)[C@@H]1CO[C@H]1CC[C@@H](c2ccccc2)CC1 [Compound A, methyl (2R,3S)-3-((methylsulfonyl)amino)-2-(((cis-4-phenylcyclohexyl)oxy)methyl)piperidine-1-carboxylate]
Plasma Concentration of Cmpd A, Mean [1]: 105.7 ng/mL | Plasma Concentration of Cmpd A, Median [1]: 109.5 ng/mL | Plasma Concentration of Cmpd A, Minimum [1]: 89.8 ng/mL | Plasma Concentration of Cmpd A, Q1 [1]: 90.60 ng/mL | Plasma Concentration of Cmpd A, Q3 [1]: 115.0 ng/mL | Plasma Concentration of Cmpd A, Maximum [2]: 101 ng/mL | Plasma Concentration of Cmpd A, Mean [2]: 87.53 ng/mL | Plasma Concentration of Cmpd A, Median [2]: 89.55 ng/mL | Plasma Concentration of Cmpd A, Minimum [2]: 69.8 ng/mL | Plasma Concentration of Cmpd A, Q1 [2]: 76.60 ng/mL | Plasma Concentration of Cmpd A, Q3 [2]: 98.70 ng/mL | Plasma Concentration of Cmpd A, Maximum [3]: 82.2 ng/mL | Plasma Concentration of Cmpd A, Mean [3]: 61.40 ng/mL | Plasma Concentration of Cmpd A, Median [3]: 59.80 ng/mL | Plasma Concentration of Cmpd A, Minimum [3]: 41.2 ng/mL | Plasma Concentration of Cmpd A, Q1 [3]: 53.10 ng/mL | Plasma Concentration of Cmpd A, Q3 [3]: 72.30 ng/mL | Plasma Concentration of Cmpd A, Maximum [4]: 52.5 ng/mL | Plasma Concentration of Cmpd A, Mean [4]: 44.02 ng/mL | Plasma Concentration of Cmpd A, Median [4]: 45.90 ng/mL | Plasma Concentration of Cmpd A, Minimum [4]: 30.3 ng/mL | Plasma Concentration of Cmpd A, Q1 [4]: 40.30 ng/mL | Plasma Concentration of Cmpd A, Q3 [4]: 49.20 ng/mL | Plasma Concentration of Cmpd A, Maximum [5]: 44.3 ng/mL | Plasma Concentration of Cmpd A, Mean [5]: 32.82 ng/mL | Plasma Concentration of Cmpd A, Median [5]: 30.10 ng/mL | Plasma Concentration of Cmpd A, Minimum [5]: 22.2 ng/mL | Plasma Concentration of Cmpd A, Q1 [5]: 28.20 ng/mL | Plasma Concentration of Cmpd A, Q3 [5]: 42.00 ng/mL | Plasma Concentration of Cmpd A, Maximum [6]: 20.2 ng/mL | Plasma Concentration of Cmpd A, Mean [6]: 15.28 ng/mL | Plasma Concentration of Cmpd A, Median [6]: 15.05 ng/mL | Plasma Concentration of Cmpd A, Minimum [6]: 11.7 ng/mL | Plasma Concentration of Cmpd A, Q1 [6]: 12.00 ng/mL | Plasma Concentration of Cmpd A, Q3 [6]: 17.70 ng/mL | Plasma Concentration of Cmpd A, Maximum [7]: 13.8 ng/mL | Plasma Concentration of Cmpd A, Mean [7]: 7.692 ng/mL | Plasma Concentration of Cmpd A, Median [7]: 5.985 ng/mL | Plasma Concentration of Cmpd A, Minimum [7]: 3.97 ng/mL | Plasma Concentration of Cmpd A, Q1 [7]: 4.910 ng/mL | Plasma Concentration of Cmpd A, Q3 [7]: 11.50 ng/mL | Plasma Concentration of Cmpd A, Maximum [8]: 5.82 ng/mL | Plasma Concentration of Cmpd A, Mean [8]: 3.298 ng/mL | Plasma Concentration of Cmpd A, Median [8]: 2.665 ng/mL | Plasma Concentration of Cmpd A, Minimum [8]: 1.85 ng/mL | Plasma Concentration of Cmpd A, Q1 [8]: 2.030 ng/mL | Plasma Concentration of Cmpd A, Q3 [8]: 4.760 ng/mL | Plasma concentration, Maximum [9]: 224 ng/mL | Plasma concentration, Mean [9]: 195.0 ng/mL | Plasma concentration, Median [9]: 205.0 ng/mL | Plasma concentration, Minimum [9]: 154 ng/mL | Plasma concentration, Q1 [9]: 159.0 ng/mL | Plasma concentration, Q3 [9]: 223.0 ng/mL | Plasma concentration, Maximum (180 mg, Predose): 0.00 ng/mL | Plasma concentration, Mean (180 mg, Predose): 0.000 ng/mL | Plasma concentration, Median (180 mg, Predose): 0.000 ng/mL | Plasma concentration, Minimum (180 mg, Predose): 0.00 ng/mL | Plasma concentration, Q1 (180 mg, Predose): 0.000 ng/mL | Plasma concentration, Q3 (180 mg, Predose): 0.000 ng/mL | Plasma Concentration of Cmpd A, Maximum [10]: 392 ng/mL | Plasma Concentration of Cmpd A, Median [10]: 329.5 ng/mL | Plasma Concentration of Cmpd A, Q3 [10]: 360.0 ng/mL | Plasma Concentration of Cmpd A, Maximum [11]: 321 ng/mL | Plasma Concentration of Cmpd A, Mean [11]: 256.3 ng/mL | Plasma Concentration of Cmpd A, Median [11]: 249.0 ng/mL | Plasma Concentration of Cmpd A, Minimum [11]: 200 ng/mL | Plasma Concentration of Cmpd A, Q1 [11]: 243.0 ng/mL | Plasma Concentration of Cmpd A, Q3 [11]: 276.0 ng/mL | Plasma Concentration of Cmpd A, Maximum [12]: 252 ng/mL | Plasma Concentration of Cmpd A, Mean [12]: 220.3 ng/mL | Plasma Concentration of Cmpd A, Median [12]: 222.5 ng/mL | Plasma Concentration of Cmpd A, Minimum [12]: 182 ng/mL | Plasma Concentration of Cmpd A, Q1 [12]: 215.0 ng/mL | Plasma Concentration of Cmpd A, Q3 [12]: 228.0 ng/mL | Plasma Concentration of Cmpd A, Maximum [13]: 212 ng/mL | Plasma Concentration of Cmpd A, Mean [13]: 193.7 ng/mL | Plasma Concentration of Cmpd A, Median [13]: 200.5 ng/mL | Plasma Concentration of Cmpd A, Minimum [13]: 148 ng/mL | Plasma Concentration of Cmpd A, Q1 [13]: 199.0 ng/mL | Plasma Concentration of Cmpd A, Q3 [13]: 202.0 ng/mL | Plasma Concentration of Cmpd A, Maximum [14]: 203 ng/mL | Plasma Concentration of Cmpd A, Mean [14]: 172.3 ng/mL | Plasma Concentration of Cmpd A, Median [14]: 174.5 ng/mL | Plasma Concentration of Cmpd A, Minimum [14]: 127 ng/mL | Plasma Concentration of Cmpd A, Q1 [14]: 168.0 ng/mL | Plasma Concentration of Cmpd A, Q3 [14]: 187.0 ng/mL | Plasma Concentration of Cmpd A, Maximum [15]: 159 ng/mL | Plasma Concentration of Cmpd A, Mean [15]: 144.7 ng/mL | Plasma Concentration of Cmpd A, Median [15]: 148.5 ng/mL | Plasma Concentration of Cmpd A, Minimum [15]: 113 ng/mL | Plasma Concentration of Cmpd A, Q1 [15]: 145.0 ng/mL | Plasma Concentration of Cmpd A, Q3 [15]: 154.0 ng/mL | Plasma Concentration of Cmpd A, Maximum [16]: 112 ng/mL | Plasma Concentration of Cmpd A, Mean [16]: 97.98 ng/mL | Plasma Concentration of Cmpd A, Median [16]: 100.5 ng/mL | Plasma Concentration of Cmpd A, Minimum [16]: 77.5 ng/mL | Plasma Concentration of Cmpd A, Q1 [16]: 94.40 ng/mL | Plasma Concentration of Cmpd A, Q3 [16]: 103.0 ng/mL | Plasma Concentration of Cmpd A, Mean [17]: 77.10 ng/mL | Plasma Concentration of Cmpd A, Minimum [17]: 64.7 ng/mL | Plasma Concentration of Cmpd A, Q1 [17]: 68.80 ng/mL | Plasma Concentration of Cmpd A, Mean [18]: 55.97 ng/mL | Plasma Concentration of Cmpd A, Minimum [18]: 41.9 ng/mL | Plasma Concentration of Cmpd A, Mean [19]: 29.47 ng/mL | Plasma Concentration of Cmpd A, Minimum [19]: 21.8 ng/mL | Plasma Concentration of Cmpd A, Mean [20]: 14.42 ng/mL | Plasma Concentration of Cmpd A, Minimum [20]: 7.04 ng/mL | Plasma Concentration of Cmpd A, Mean [21]: 6.740 ng/mL | Plasma Concentration of Cmpd A, Minimum [21]: 3.23 ng/mL | Plasma Concentration of Cmpd A, Maximum [22]: 0.00 ng/mL | Plasma Concentration of Cmpd A, Median [22]: 0.000 ng/mL | Plasma Concentration of Cmpd A, Q3 [22]: 0.000 ng/mL | Plasma concentration, Mean [23]: 328.2 ng/mL | Plasma concentration, Minimum [23]: 277 ng/mL | Plasma concentration, Q1 [23]: 281.0 ng/mL | Plasma concentration, Mean (240 mg, Predose): 0.000 ng/mL | Plasma concentration, Minimum (240 mg, Predose): 0.00 ng/mL | Plasma concentration, Q1 (240 mg, Predose): 0.000 ng/mL
